For one data set, the system named is HIV-1. Kind of data set: Test A: antiviral activity against HIV-1 isolates and laboratory strain in peripheral blood lymphocytes. Format: cell-based. The following applies: for antiviral activity relative to DZA: HIV-1 in peripheral blood lymphocytes; for IC50: read-out: Mean IC50 in PBLs. As to the method:
The antiviral activity of representative compounds of the invention was determined with matched HIV-1 isolates and a laboratory HIV-1 strain as previously described (D. L. Mayers et al., Proc. Natl. Acad. Sci., USA 1995, 92, 215-219; and C. R. Wagner et al., Bioorganic and Medicinal Chemistry Letters, 1995, 5, 1819-1824).

Data set [1] deals with HIV (antiviral activity in PBMC's). The data set can be described thus: Test B: antiviral activity in PBMC's. Format: cell-based. The text has this:
The antiviral properties of compounds of the invention can also be determined in PBMCs using a procedure similar to that described by E. I. McIntee, et al. J. Med. Chem., 1997, 40, 3323-3331.

The next data set can be described thus: Log P. In kind it is physicochemical. As to conditions: as demonstrated by the Log P values.
The next data set relates to rat mammary carcinomas. Kind of data set: Test D: in vivo anti-breast tumor activity, methyl nitroso urea induced mammary tumors. As to conditions: i.p. daily. Set-up: species or system Sprague-Dawley rats. As to the method: The in vivo anti-breast tumor activity of AZT and compound 9 against rat mammary carcinomas, was evaluated as follows. Fifty-day old female Sprague-Dawley rats with an average weight of 170 g we given 50 mg/kg of methyl nitroso urea in 1 mL of water by i.p. injections over a period of one week. One hundred percent of the rats developed mammary tumors between 2 to 3 months after treatment. Once a week, the rats were lightly anesthesized with ether and the tumors were measured in 2 dimensions with a caliper. The tumor volume was calculated based on an ellipsoid tumor shape with the following equation: v=4/3Pr12r2, where r^1 is the minor radius. The rats were selected after at least one tumor pet rat had reached 1 cm in a single dimension. The rats were divided into control and experimental groups. Each experimental rat was matched with a control rat with similar sized tumors and the overall number of tumors at the beginning of the experiment was approximately the same for both groups. The animals were divided into 4 treatment groups with 5 animals in each group, and injected i.p. daily for the duration of the experiment. Tumor size and weight was determined weekly.
Tumor volumes of control and treated rats were measured and plotted on a growth curve (FIG. 6). For the control animals, the tumor size approximately doubled in volume every seven days. […]

For data set [2], the system named is MCF-7 cells.
Data set [3] relates to MCF-7 cells. Kind of data set: Test C: cytotoxicity in MCF-7 breast cancer cells.
Setting [4] is: Donor 1, read-out: IC50 PBMC's Donor 1.
The mark [5] stands for this setting: Donor 2, read-out: IC50 PBMC's Donor 2.

Where two headings read alike, the source gives them in different places. A value given as a limit tells only on which side of the number the result lay.

Regarding `COC(=O)C(Cc1c[nH]c2ccccc12)NP(=O)(O)OCC1OC(n2cnc3c(N)nccc32)C(O)C1O` (centres unmarked) [Compound 6, 3-Deaza adenosine-5-N-(1-carbomethoxy-2-indol-3-ylethyl)-phosphoramidate], the “antiviral activity relative to DZA” value in the data set on HIV-1 is reported as “nearly forty-fold more active than DZA”. Further, the values for the IC50 with HIV-1 (HIV-1 isolate A012 post-AZT) and with HIV-1 (HIV-1 isolate A012 pre-AZT) were more than 10000 nM and 4.4 nM, respectively.
For `COC(=O)C(Cc1ccccc1)NP(=O)(O)OCC1OC(n2cnc3c(N)nccc32)C(O)C1O` (centres unmarked) [Compound 5, 3-Deaza adenosine-5-N-(1-carbomethoxy-2-phenylethyl) phosphoramidate] the same measures were “nearly ten-fold more active than DZA”, more than 10000 nM and 9.3 nM.
As to `COC(=O)C(Cc1ccccc1)NP(=O)(O)OCC1CC(n2cnc3c(N)nccc32)C(O)C1O` (centres unmarked) [Compound 7, 3-Deaza aristeromycin-5-N-(1-carbomethoxy-2-phenylethyl)-phosphoramidate], the IC50 (as a rule, the midpoint of a concentration-inhibition curve) in the data set with HIV-1 (HIV-1 isolate G910 AZTr) is 10000 nM; with HIV-1 (HIV-1 isolate LAI), 400 nM. For the same compound, the “antiviral activity compared to DZAri” value in the data set on HIV-1 (preliminary experiments) is listed as “comparable antiviral activity to DZAri”.
Take `COC(=O)[C@@H](Cc1c[nH]c2ccccc12)NP(=O)(O)OC[C@H]1O[C@@H](n2cc(C)c(=O)[nH]c2=O)C[C@@H]1N=[N+]=[N-]` [Compound 10, 3-Azido-3-deoxythymidine-5-methoxy-D-trytophanyl-phosphoramidate]: the half-maximal inhibitory concentration (IC50) in data set [1] (setting [4]) and in data set [1] (setting [5]) was 1000 nM in each case.
As to `COC(=O)[C@H](Cc1c[nH]c2ccccc12)NP(=O)(O)OC[C@H]1O[C@@H](n2cc(C)c(=O)[nH]c2=O)C[C@@H]1N=[N+]=[N-]` [Compound 9, 3-Azido-3-deoxythymidine-5-methoxy-L-trytophanyl-phosphoramidate], the IC50 in data set [1] (setting [4]) stood at 300 nM. Also, the IC50 in data set [1] (setting [5]) was determined as 350 nM. Besides, the “solubility in water relative to AZT” value in the data set “Log P” is “one of two orders of magnitude more soluble in water than AZT”. Also, the “effect on tumor size” value in the data set with rat mammary carcinomas was “complete tumor registration in ten days”. Besides, the midpoint of cytotoxicity in the data set with MCF-7 cells [2], the CC50, lay at 30 nM. In the data set on MCF-7 cells [3], the “fold more toxic than the D-phenylalanine derivative 12” value was “at least 100 fold” and the “fold more toxic than the D-tryptophan derivative 10” value is given as more than 3000 fold. Besides, the “fold less toxic than AZT” value in the data set on MCF-7 cells [3] (MCF7 cells) is recorded as “three-fold less toxic than AZT”.
With `COC(=O)[C@H](Cc1ccccc1)NP(=O)(O)OC[C@H]1O[C@@H](n2cc(C)c(=O)[nH]c2=O)C[C@@H]1N=[N+]=[N-]` [Compound 11, 3-Azido-3-deoxythymidine-5-methoxy-L-phenylalaninylphosphoramidate], the half-maximal inhibitory concentration (IC50) in data set [1] (setting [4]) was 30000 nM; in data set [1] (setting [5]) it was 15000 nM; with MCF-7 cells [3] (MCF7 cells) it was 400 ± 50 nM. The “solubility in water relative to AZT” value in “Log P” is given as “one of two orders of magnitude more soluble in water than AZT”. Moreover, in the data set with MCF-7 cells [3] (MCF7 cells), the “fold less toxic than AZT” value amounted to 40 fold.
For the compound `Nc1nccc2c1ncn2[C@@H]1C[C@H](CO)[C@@H](O)[C@H]1O` [DZAri, 3-deaza aristeromycin, reference compound], the IC50 stood at 365 nM in the data set on HIV-1 (HIV-1 isolate A012 post-AZT) and 141 nM in the data set with HIV-1 (HIV-1 isolate A012 pre-AZT).
On to `Cc1cn([C@H]2C[C@H](N=[N+]=[N-])[C@@H](CO)O2)c(=O)[nH]c1=O` [AZT, reference compound], for which the half-maximal inhibitory concentration (IC50) in the data set on HIV-1 (HIV-1 isolate A012 post-AZT) is more than 1000 nM; in the data set on HIV-1 (HIV-1 isolate A012 pre-AZT), 1.2 nM; in the data set with HIV-1 (HIV-1 isolate G910 AZTr), 700 nM; in the data set on HIV-1 (HIV-1 isolate LAI) it was 4 nM. For the same compound, in the data set on rat mammary carcinomas, the “reduction of the rate of tumor growth” value was approximately 80%. The cytotoxic concentration (CC50) (commonly the concentration that lowers cell viability or growth by half) in the data set on MCF-7 cells [2] amounted to 10 nM.

(Values after patent US6475985B1, “Nucleosides with antiviral and anticancer activity” (priority 1998, dated 2002).)
